According to the supplement of paper PMC7125110:
± gives the standard error. Variants at the floor of the assay are shown more often than the library holds them.

B1: glmS ribozyme (parent)
chain: AUAAAAGCGCCAGAACUACAGAAAUGUAGUUGACGAGGAGGAGGUUUAUCGAAUUUUCGGCGGAUGCCUCCAAA

Key:
Conditions in all cases: with glucosamine-6-phosphate
[1] = variants of: B1; assay: self-cleavage kobs at 640 uM GlcN6P; higher = faster cleavage; RNA array
How it was run: (§1)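 On sequenced MiSeq chips, barcoded ribozyme variants were made in situ by E. coli RNA polymerase and followed at 37 °C through a hybridised Cy3 probe. Glucosamine-6-phosphate was flowed in at 40 μM to 10 mM in HEPES/KCl/Mg(OAc)2 buffer. Exponential fits to normalised per-tile medians gave kobs, and weighted Michaelis–Menten fits gave kcat and KM.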

[2] = variants of: B1; assay: self-cleavage kobs at 2500 uM GlcN6P; higher = faster cleavage; RNA array
How it was run: as §1

[3] = variants of: B1; assay: self-cleavage kobs at 160 uM GlcN6P; higher = faster cleavage; RNA array
How it was run: as §1

[4] = variants of: B1; assay: self-cleavage kobs at 10000 uM GlcN6P; higher = faster cleavage; RNA array
How it was run: as §1

Row | Variant | self-cleavage kobs at 640 uM GlcN6P [1] | self-cleavage kobs at 2500 uM GlcN6P [2] | self-cleavage kobs at 160 uM GlcN6P [3] | self-cleavage kobs at 10000 uM GlcN6P [4]
1 | C11G G40C C58U C67U | < 1e-05 s⁻¹ | < 1e-05 s⁻¹ |  | 
2 | C11U U69A | 0.000191 ± 5.6e-05 s⁻¹ | 0.000157 ± 3.2e-05 s⁻¹ | 5.24e-05 ± 1.6e-05 s⁻¹ | 6.31e-05 ± 1.7e-05 s⁻¹
3 | A12U G32A G37U | < 1e-05 s⁻¹ | < 1e-05 s⁻¹ |  | 
4 | C10G U45A U54G G59C | < 1e-05 s⁻¹ | < 1e-05 s⁻¹ |  | 
5 | A12C G38U U46A A48C | < 1e-05 s⁻¹ |  |  | 
6 | C10U C68G C70U | 0.00013 ± 2.8e-05 s⁻¹ | 5.98e-05 ± 1.4e-05 s⁻¹ | 3.3e-05 ± 1.5e-05 s⁻¹ | 
7 | C11U G63U U65A | < 1e-05 s⁻¹ |  |  | 
8 | C11U G29U | 7.49e-05 ± 1.3e-05 s⁻¹ | 0.000407 ± 6.3e-05 s⁻¹ | 5.37e-05 ± 1.3e-05 s⁻¹ | 0.000463 ± 6.1e-05 s⁻¹
9 | C11G G35C G37U G43U U46G | < 1e-05 s⁻¹ |  | < 1e-05 s⁻¹ | 
10 | A12C A15U A33G G35C G44U | < 1e-05 s⁻¹ | < 1e-05 s⁻¹ |  | 
11 | C10U U31A G63C | < 1e-05 s⁻¹ | < 1e-05 s⁻¹ | < 1e-05 s⁻¹ | 
12 | A12U A53C C58U G62A | < 1e-05 s⁻¹ |  |  | 
13 | C10U U55C G59A | < 1e-05 s⁻¹ | < 1e-05 s⁻¹ |  | 
14 | A12G G38C A39C C68U C70G C71U | < 1e-05 s⁻¹ | < 1e-05 s⁻¹ | < 1e-05 s⁻¹ | 
15 | C10U A39U U57A | < 1e-05 s⁻¹ | < 1e-05 s⁻¹ | < 1e-05 s⁻¹ | 
16 | C10U A14G C16U A33C A48C G62C | < 1e-05 s⁻¹ |  |  | 
17 | C10U A12C G60U | < 1e-05 s⁻¹ |  |  | 
18 | A12C U30C A36U | < 1e-05 s⁻¹ | < 1e-05 s⁻¹ |  | < 1e-05 s⁻¹
19 | C11A A48U C70A | 9.74e-05 ± 2.9e-05 s⁻¹ |  |  | 

Row | Variant | self-cleavage kobs at 640 uM GlcN6P [1] | self-cleavage kobs at 2500 uM GlcN6P [2] | self-cleavage kobs at 160 uM GlcN6P [3] | self-cleavage kobs at 10000 uM GlcN6P [4]
20 | A12G G32U | 0.000164 ± 1.8e-05 s⁻¹ | 0.00055 ± 5.4e-05 s⁻¹ | 4.1e-05 ± 8.1e-06 s⁻¹ | 0.00144 ± 0.00014 s⁻¹
21 | A12U A33U | 7.77e-05 ± 8.6e-06 s⁻¹ | 0.00015 ± 1.6e-05 s⁻¹ |  | 0.000348 ± 3.2e-05 s⁻¹
22 | C11A G29U G35U | < 1e-05 s⁻¹ |  | < 1e-05 s⁻¹ | 
23 | A12U A36U G37A U45A | < 1e-05 s⁻¹ | < 1e-05 s⁻¹ |  | 
24 | G13A A14G U30A C34A | < 1e-05 s⁻¹ | < 1e-05 s⁻¹ |  | 
25 | C11G U31G U56A | < 1e-05 s⁻¹ |  |  | 
26 | A12C A14G C34G G38U U49G A64G | < 1e-05 s⁻¹ | < 1e-05 s⁻¹ |  | 
27 | A12U G29C G51A G60U C68A | < 1e-05 s⁻¹ |  |  | 
28 | C10U G32U C68U | < 1e-05 s⁻¹ |  |  | 
29 | A12C A15C G38C A48G C67G | < 1e-05 s⁻¹ |  |  | 
30 | G13A A36U G41A G59A G60U U65G | < 1e-05 s⁻¹ |  | < 1e-05 s⁻¹ | 
31 | A12G G13C G51A U69C | < 1e-05 s⁻¹ | < 1e-05 s⁻¹ |  | 
32 | A12U A15C C71A | 0.000661 ± 0.00015 s⁻¹ | 0.0015 ± 0.00053 s⁻¹ |  | 
33 | A12G A15U U45C G59A | < 1e-05 s⁻¹ | < 1e-05 s⁻¹ |  | 
34 | C10G G13A G43A C50U | < 1e-05 s⁻¹ | < 1e-05 s⁻¹ |  | < 1e-05 s⁻¹
35 | A12C G37C G38A A64U | < 1e-05 s⁻¹ |  |  | 
36 | C11A G38U A39U G60A | < 1e-05 s⁻¹ | < 1e-05 s⁻¹ |  | 
37 | G13C A14U | 6.86e-05 ± 1.5e-05 s⁻¹ | 0.000186 ± 3e-05 s⁻¹ |  | 0.00025 ± 3.1e-05 s⁻¹
38 | A12C C16U A52C | < 1e-05 s⁻¹ |  |  | 

Row | Variant | self-cleavage kobs at 640 uM GlcN6P [1] | self-cleavage kobs at 2500 uM GlcN6P [2] | self-cleavage kobs at 160 uM GlcN6P [3] | self-cleavage kobs at 10000 uM GlcN6P [4]
39 | C11U A14U A39G G44A G51C | < 1e-05 s⁻¹ |  |  | 
40 | A12U C34G G35U A39G G63A | < 1e-05 s⁻¹ | < 1e-05 s⁻¹ | < 1e-05 s⁻¹ | 
41 | C10G G41C U56G C67A | < 1e-05 s⁻¹ | < 1e-05 s⁻¹ |  | 
42 | C10G U31C A33C G51U C71U | < 1e-05 s⁻¹ |  | < 1e-05 s⁻¹ | 
43 | C11G A48U C58A A64C | < 1e-05 s⁻¹ | < 1e-05 s⁻¹ |  | 
44 | C10U A23C A48C A53C | < 1e-05 s⁻¹ |  | < 1e-05 s⁻¹ | 
45 | G13A C68G C71G | 0.000118 ± 5e-05 s⁻¹ |  |  | 
46 | C11A U45A G63A | < 1e-05 s⁻¹ | < 1e-05 s⁻¹ | < 1e-05 s⁻¹ | < 1e-05 s⁻¹
47 | A12C A14G U31A G35U G38U A39U A48C | < 1e-05 s⁻¹ |  |  | 
48 | G13C G32A U45A A52U G60A G62C A64G C68U | < 1e-05 s⁻¹ | < 1e-05 s⁻¹ |  | 
49 | G13A A15G G35U | < 1e-05 s⁻¹ | < 1e-05 s⁻¹ |  | 
50 | C11U A15C A39C U49C | < 1e-05 s⁻¹ |  |  | 
51 | G13A G29U G62A C70U | < 1e-05 s⁻¹ |  |  | 
52 | A12G G32A A36U | < 1e-05 s⁻¹ |  | < 1e-05 s⁻¹ | < 1e-05 s⁻¹
53 | G13C A14C G32U U69C | 8.31e-05 ± 2.1e-05 s⁻¹ | 7.03e-05 ± 2e-05 s⁻¹ |  | 
54 | C11G U31G G44A U65C | < 1e-05 s⁻¹ |  | < 1e-05 s⁻¹ | 
55 | C11U G13C U57C | < 1e-05 s⁻¹ | < 1e-05 s⁻¹ | < 1e-05 s⁻¹ | 
56 | C10U A48G G66A | < 1e-05 s⁻¹ |  |  | 
57 | A12C G40A G51U A53U | < 1e-05 s⁻¹ | < 1e-05 s⁻¹ |  | 
